Measurements: PubChem BioAssay AID1347071 (National Center for Advancing Translational Sciences (NCATS), 2019)
The whole screen tested about 410,000 compounds, of which about 260 (0.063%) were called active. Inconclusive means that the source gave no clear call. Such entries were picked first, then a sample of the others. The call rests on the fitted dose curve; in most records, active means well fitted activation curve with a large enough effect; inconclusive means small, poorly fitted or top-dose-only effect; inactive means no such curve, though single readings can be large or run the other way. No potency is given beside an inconclusive call; the fits are too rough.

test: qHTS for compounds that reverse cellular toxicity of Amyloid beta (A-beta) peptide in yeast: Primary Screen; details: yeast expressing A-beta42, growth rescue, OD600, 48 h; growth rescue: at 46.1 µM (top of the series), 0% DMSO, 100% iron-clioquinol control; further: nearly all actives have a fitted effect of over 55% in size
How it was run: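 Growth rescue measured by 600 nm absorbance after 48 h yeast culture at 30 C with compound. Values normalized between DMSO and an equimolar ferric chloride plus clioquinol control.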
Potency means the concentration at half of the fitted maximal effect; tags describe the fitted curve by direction and shape.

Row | SMILES | Potency | growth rescue
1 | CN(C)c1ccc(C(c2nnnn2CCOC(=O)Nc2ccc(Cl)cc2)N2CCOCC2)cc1 (centres undefined) | inconclusive [activator, partial curve, poor fit] | 
2 | Cc1ccc2cc(C(c3nnnn3C3CCCC3)N3CCN(c4ccccc4)CC3)c(=O)[nH]c2c1 (centres undefined) | inconclusive [activator, single point] | 
3 | COc1ccccc1CNC(=O)c1cc2c(C)nn(Cc3ccc(F)cc3)c2s1 | inconclusive [activator, partial curve, poor fit] | 
4 | CC(C)(C)c1ccc(Oc2ccc(N)cn2)cc1 | inconclusive [activator, single point] | 
5 | Cc1cccc(C2=NN(c3ccccc3)[C@H](CO)[C@H]2c2ccc(Cl)cc2)c1 | inconclusive [activator, partial curve, poor fit] | 
6 | O=C(O)c1ccc(CSc2nc3ccccc3[nH]2)cc1 | inconclusive [activator, partial curve, poor fit] | 
7 | CC(C)Oc1ccc(C(=O)OCC(=O)NC(=O)NC2CCCC2)cc1 | inconclusive [activator, partial curve, poor fit] | 
8 | CCOC(=O)Cn1c(=O)oc2cc(S(=O)(=O)N3CCN(c4cccc(C)c4C)CC3)ccc21 | inconclusive [activator, partial curve, poor fit] | 
9 | Cc1ccc(OC(C)C(=O)Nc2nonc2-c2ccc(Br)cc2)cc1C (centres undefined) |  | inactive: -1.25%
10 | CCc1nnc2c3ccccc3nc(Nc3ccc(C(C)=O)cc3)n12 |  | inactive: -4.67%
11 | O=C(O)CC/C(=N/NC(=O)c1cccs1)c1ccccc1 | inconclusive [activator, single point] | 
12 | CCOC(=O)c1c(C)n(-c2ccc(OC)cc2)c2c(C/C(C)=N/O)c(Br)c(OC)c(O)c12 | inconclusive [activator, single point] | 
13 | Fc1ccc(C(Nc2ccccn2)c2c[nH]c3ccccc23)cc1 (centres undefined) | inconclusive [activator, partial curve] | 
14 | Cc1ccccc1COc1cccn2c(N(C)C(=O)CCC3CCCC3)c(C)nc12 | inconclusive [activator, partial curve, poor fit] | 
15 | CCc1ccc(OCc2n[nH]c(=S)n2C(C)CCCC(C)C)cc1 (centres undefined) | inconclusive [activator, single point] | 
16 | CCOC(=O)CC(NS(=O)(=O)c1ccc2[nH]c3c(c2c1)CCCC3)c1ccccc1Cl (centres undefined) |  | inactive: 11.2%
17 | Cc1ccc(Cl)cc1-n1ncc2c(NC3CCCCCC3)ncnc21 |  | inactive: -39.3%
18 | CC(C)COP(=O)(c1ccc(N(C)C)cc1)C(O)c1ccc(Br)cc1 (centres undefined) | inconclusive [activator, partial curve] | 
19 | COc1cccc(NC(=S)NC(=O)Cc2ccc(Cl)cc2)c1 | inconclusive [activator, full curve] | 
20 | Cc1ccc(C(C)C)cc1OCC(=O)N/N=C/c1ccc2c(c1)OCCO2 |  | inactive: 14.5%
21 | Cc1ccc(-n2ncc(C(=O)NCc3ccccc3C)c2-n2cccc2)cc1 |  | inactive: -10.1%
22 | COc1ccccc1N1CCN(C(=S)Nc2ccccc2)CC1 | inconclusive [activator, single point] | 
23 | CCOc1ccccc1NC(=O)C(=O)NCCc1sc(-c2cccc(F)c2)nc1C |  | inactive: -5.67%

Row | SMILES | Potency | growth rescue
24 | CS(=O)(=O)C1=NSC2=NC(=O)/C(=C\c3cccn3-c3ccc(Cl)cc3)C(=N)N21 | inconclusive [activator, partial curve] | 
25 | COc1ccc(-c2csc(N3CCN(C(=O)c4ccccc4)CC3)n2)cc1 |  | inactive: -3.05%
26 | Cc1cc(C(=O)NCc2ccc3c(c2)OCO3)ccc1[N+](=O)[O-] | inconclusive [activator, single point] | 
27 | CCOC(=O)c1ccc(NC(=O)c2c(-c3c(F)cccc3Cl)noc2C)cc1 |  | inactive: 10%
28 | Cc1ccn2c(=O)c(C(=O)O)cnc2c1 | inconclusive [activator, single point] | 
29 | Cc1ccc(C(=O)/C=C/C(=O)c2ccc(C)cc2)cc1 |  | inactive: -19.9%
30 | CSc1ncc2c(n1)-c1ccccc1N(Cc1ccc(Cl)cc1)S2(=O)=O |  | inactive: -13.1%
31 | CN(Cc1ccccc1)C(=O)c1ccc2c(c1)OCCO2 |  | inconclusive: 30.9% [activator]
32 | S=C(NC1CCCC1)NC1CCCC1 | inconclusive [activator, partial curve, poor fit] | 
33 | COC(=O)c1cccc(-n2c(CCC(=O)O)ccc2-c2ccc(OC)cc2)c1 |  | inactive: -13.3%
34 | CCOC(=O)c1c(C)oc2ncnc(N3CCN(c4ccccc4OC)CC3)c12 |  | inactive: -33.8%
35 | COc1ccccc1CNS(=O)(=O)c1ccc(Br)s1 |  | inactive: 14.4%
36 | Nc1ccc(-c2nc3ncccc3o2)cc1 | inconclusive [activator, single point] | 
37 | S=c1[nH]nc(C2CCCCC2)n1/N=C/C(Cl)=C\c1ccccc1 | inconclusive [activator, partial curve, poor fit] | 
38 | COc1ccc(-c2csc(C(C)(O)c3ccc(OC)cc3)n2)cc1 (centres undefined) | inconclusive [activator, single point] | 
39 | Cc1cc(OCc2cc(C(=O)N(C)Cc3ccccn3)no2)cc(C)c1Cl | inconclusive [activator, partial curve, poor fit] | 
40 | O=C(CSc1nccn1-c1ccc(F)cc1)Nc1ccc(OC(F)(F)F)cc1 | inconclusive [activator, single point] | 
41 | O=C(Nc1cccnc1)c1cc(-c2cccnc2)nc2ccc(Br)cc12 |  | inactive: 15.3%
42 | Cc1ccc(NC(=S)NCc2ccc(F)cc2)c(C)c1 | inconclusive [activator, partial curve, poor fit] | 
43 | C#CCn1c(=NC(=O)c2ccc(S(=O)(=O)N3CCc4ccccc4C3)cc2)sc2cc(S(N)(=O)=O)ccc21 |  | inactive: 3.77%
44 | O=C(COC(=O)COc1ccccc1)Nc1ccc2c(c1)OCCO2 | inconclusive [activator, full curve] | 
45 | COc1cccc(N2CCN(c3ccc(S(=O)(=O)N4CCCC4)cc3)CC2)c1 |  | inactive: 1.7%
46 | COc1ccc(N2CCN(C(=O)c3ccc(N(C)S(=O)(=O)c4ccc(OC)cc4)cc3)CC2)cc1 |  | inactive: 2.22%

Row | SMILES | Potency | growth rescue
47 | O=C(NNC(=S)NC(=O)c1cccnc1)c1ccc(Cl)cc1 | inconclusive [activator, single point] | 
48 | Cc1ccc(C(=O)O)cc1Nc1nc2ccccc2n2nnnc12 |  | inactive: -12.7%
49 | CC(C)N(Cc1ccccc1)C(=S)Nc1ccc(OC(F)F)cc1 | inconclusive [activator, single point] | 
50 | O=C(NC(=S)NC1CCCCC1)c1ccc(Cl)cc1 | inconclusive [activator, partial curve, poor fit] | 
51 | COc1ccc(C(=O)n2nc(-c3ccccc3)nc2N)cc1OC | inconclusive [activator, full curve, poor fit] | 
52 | COCCNC(=S)N1CCC2CC1c1cc(-c3ccc4c(c3)OCO4)ccc12 (centres undefined) | inconclusive [activator, single point] | 
53 | O=C1Nc2ccccc2C1=Nc1ccc(-c2nnc3n2CCCCC3)cc1 |  | inconclusive: -51.3% [activator]
54 | CN(CC(=O)Nc1ccc(Cl)c(Cl)c1)C(=O)C12CC3CC(CC(C3)C1)C2 | inconclusive [activator, full curve, poor fit] | 
55 | O=C1OCC(c2ccccc2)=C1c1ccccc1 |  | inactive: -7.79%
56 | CC(=O)N(C)c1ccc(OCC(O)Cn2c3ccc(Cl)cc3c3cc(Cl)ccc32)cc1 (centres undefined) | inconclusive [activator, full curve, poor fit] | 
57 | CCC(C(=O)OCC(=O)Nc1cccc(C(C)=O)c1)c1ccccc1 (centres undefined) | inconclusive [activator, single point] | 
58 | Cc1n[nH]c(C)c1CCOc1ccc(C(C)C)cc1 | inconclusive [activator, full curve] | 
59 | O=C(O)c1cc([N+](=O)[O-])c(NCCC2=CCCCC2)c([N+](=O)[O-])c1 | inconclusive [activator, partial curve, poor fit] | 
60 | COc1ccc(Nc2nc(N)c(C(=O)c3ccc(F)cc3)s2)cc1 | inconclusive [activator, single point] | 
61 | COc1ccc2nc(SCC(N)=O)cc(C)c2c1 | inconclusive [activator, full curve] | 
62 | N#Cc1cn(CC(=O)NCCc2c[nH]c3ccccc23)c2ccccc12 | inconclusive [activator, single point] | 
63 | S=C(NCc1ccccn1)NN=Cc1ccccn1 | inconclusive [activator, single point] | 
64 | CN(C)/C=C/C(=O)c1cnc2sccn2c1=O | inconclusive [activator, single point] | 
65 | Cc1cc(Br)c2c(c1)[C@](O)(c1cn(C)c3ccccc13)C(=O)N2C | inconclusive [activator, single point] | 
66 | Cc1ccc(N2C(=O)CC(C)CC2=O)cc1 |  | inactive: 3.35%
67 | COc1cccc2cc(C(=O)CS(=O)(=O)c3ccc(Cl)cc3)c(=O)oc12 | inconclusive [activator, partial curve, poor fit] | 
68 | Cc1ccc(S(=O)(=O)N2CCCC2=O)c(C)c1N(C)S(C)(=O)=O |  | inactive: 5.24%
69 | O=C(Nc1ccc(C(=O)O)cc1)/C(=C\c1ccc2c(c1)OCO2)NC(=O)c1ccc(Br)cc1 | inconclusive [activator, single point] | 
